No constants are given. Whether binding was seen depends on the method and setting. Binding seen in cells or lysates may run through a third protein. Some binding calls cover weakened binding; strength is not graded here. For part of these data: Sequences can lack the tags named with a protein.
Tests used:
[1] = target: Treslin/TICRR (TopBP1-interacting replication stimulating protein/TopBP1-interacting checkpoint and replication regulator), endogenous (human (endogenous in 293T and HeLa)) (UniProt Q7Z2Z1); test: co-IP; IP of endogenous Treslin with rabbit anti-Treslin-970-1400 (control IgG) from native lysates of HeLa Flp-In T-Rex lines expressing MTBP-WT or C-terminal deletions; MTBP by immunoblot
[2] = target: GFP-Flag-Treslin-ΔM1 (human) (UniProt Q7Z2Z1); test: co-IP; 293T transiently transfected with GFP-tagged MTBP or Treslin/TICRR; anti-GFP nanobodies on NHS sepharose, lysis buffer with 250 mM NaCl, 1 h at 4°C; endogenous partners by immunoblot

The chains behind the UniProt entries cited, without tags or fusion partners. Where a name states a change or a piece, a line headed by the entry shows the natural chain unless it says otherwise. A line that says so, or that is headed by a name, gives the form on record, which may keep a tag or linker.
UniProt Q7Z2Z1: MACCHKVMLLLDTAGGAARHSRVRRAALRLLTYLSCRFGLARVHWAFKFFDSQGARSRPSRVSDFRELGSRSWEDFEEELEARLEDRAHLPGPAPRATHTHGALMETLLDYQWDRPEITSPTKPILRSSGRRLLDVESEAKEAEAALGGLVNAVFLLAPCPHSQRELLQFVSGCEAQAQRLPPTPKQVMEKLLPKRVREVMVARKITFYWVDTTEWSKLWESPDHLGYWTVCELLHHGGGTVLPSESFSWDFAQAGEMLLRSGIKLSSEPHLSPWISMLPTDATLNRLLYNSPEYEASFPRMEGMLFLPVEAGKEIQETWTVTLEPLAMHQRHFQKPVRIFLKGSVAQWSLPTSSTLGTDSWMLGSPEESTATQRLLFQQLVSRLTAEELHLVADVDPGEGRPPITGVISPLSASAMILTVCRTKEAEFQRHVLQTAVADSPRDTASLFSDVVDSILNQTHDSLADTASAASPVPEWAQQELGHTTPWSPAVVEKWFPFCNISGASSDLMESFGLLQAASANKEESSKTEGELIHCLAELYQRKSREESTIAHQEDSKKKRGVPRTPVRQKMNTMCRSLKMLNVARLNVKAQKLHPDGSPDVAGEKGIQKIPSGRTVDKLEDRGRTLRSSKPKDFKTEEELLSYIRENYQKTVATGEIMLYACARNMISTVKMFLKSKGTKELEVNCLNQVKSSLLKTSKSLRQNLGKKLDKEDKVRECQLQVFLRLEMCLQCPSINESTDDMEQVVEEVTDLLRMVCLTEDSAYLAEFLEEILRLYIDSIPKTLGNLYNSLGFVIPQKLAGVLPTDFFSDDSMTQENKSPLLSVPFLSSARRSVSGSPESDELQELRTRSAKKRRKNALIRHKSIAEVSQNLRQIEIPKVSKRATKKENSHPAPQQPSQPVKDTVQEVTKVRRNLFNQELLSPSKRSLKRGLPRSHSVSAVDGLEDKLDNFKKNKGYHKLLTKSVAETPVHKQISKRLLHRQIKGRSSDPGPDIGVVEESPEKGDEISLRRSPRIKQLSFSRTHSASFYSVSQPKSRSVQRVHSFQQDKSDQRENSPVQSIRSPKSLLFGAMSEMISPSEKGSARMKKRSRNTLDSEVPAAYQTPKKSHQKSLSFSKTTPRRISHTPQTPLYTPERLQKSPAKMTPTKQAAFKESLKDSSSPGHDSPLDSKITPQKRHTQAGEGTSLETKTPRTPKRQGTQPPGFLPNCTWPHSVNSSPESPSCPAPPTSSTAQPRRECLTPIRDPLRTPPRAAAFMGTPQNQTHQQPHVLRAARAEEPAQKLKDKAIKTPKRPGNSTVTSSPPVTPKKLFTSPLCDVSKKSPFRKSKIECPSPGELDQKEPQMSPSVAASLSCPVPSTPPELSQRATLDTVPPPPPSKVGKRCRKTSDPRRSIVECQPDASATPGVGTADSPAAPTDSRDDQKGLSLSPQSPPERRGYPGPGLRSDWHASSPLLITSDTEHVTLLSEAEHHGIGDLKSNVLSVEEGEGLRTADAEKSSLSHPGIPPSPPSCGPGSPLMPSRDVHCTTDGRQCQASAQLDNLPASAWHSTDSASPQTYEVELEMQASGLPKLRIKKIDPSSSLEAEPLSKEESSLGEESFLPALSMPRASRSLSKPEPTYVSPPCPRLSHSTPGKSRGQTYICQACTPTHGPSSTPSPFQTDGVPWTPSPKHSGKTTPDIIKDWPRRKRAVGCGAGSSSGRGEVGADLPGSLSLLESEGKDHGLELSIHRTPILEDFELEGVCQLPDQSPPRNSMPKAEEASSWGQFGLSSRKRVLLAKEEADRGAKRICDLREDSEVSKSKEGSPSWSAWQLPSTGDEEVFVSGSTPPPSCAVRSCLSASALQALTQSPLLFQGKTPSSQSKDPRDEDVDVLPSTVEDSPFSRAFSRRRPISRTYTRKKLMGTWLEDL
GFP-Flag-Treslin-ΔM1 (Q7Z2Z1, form named): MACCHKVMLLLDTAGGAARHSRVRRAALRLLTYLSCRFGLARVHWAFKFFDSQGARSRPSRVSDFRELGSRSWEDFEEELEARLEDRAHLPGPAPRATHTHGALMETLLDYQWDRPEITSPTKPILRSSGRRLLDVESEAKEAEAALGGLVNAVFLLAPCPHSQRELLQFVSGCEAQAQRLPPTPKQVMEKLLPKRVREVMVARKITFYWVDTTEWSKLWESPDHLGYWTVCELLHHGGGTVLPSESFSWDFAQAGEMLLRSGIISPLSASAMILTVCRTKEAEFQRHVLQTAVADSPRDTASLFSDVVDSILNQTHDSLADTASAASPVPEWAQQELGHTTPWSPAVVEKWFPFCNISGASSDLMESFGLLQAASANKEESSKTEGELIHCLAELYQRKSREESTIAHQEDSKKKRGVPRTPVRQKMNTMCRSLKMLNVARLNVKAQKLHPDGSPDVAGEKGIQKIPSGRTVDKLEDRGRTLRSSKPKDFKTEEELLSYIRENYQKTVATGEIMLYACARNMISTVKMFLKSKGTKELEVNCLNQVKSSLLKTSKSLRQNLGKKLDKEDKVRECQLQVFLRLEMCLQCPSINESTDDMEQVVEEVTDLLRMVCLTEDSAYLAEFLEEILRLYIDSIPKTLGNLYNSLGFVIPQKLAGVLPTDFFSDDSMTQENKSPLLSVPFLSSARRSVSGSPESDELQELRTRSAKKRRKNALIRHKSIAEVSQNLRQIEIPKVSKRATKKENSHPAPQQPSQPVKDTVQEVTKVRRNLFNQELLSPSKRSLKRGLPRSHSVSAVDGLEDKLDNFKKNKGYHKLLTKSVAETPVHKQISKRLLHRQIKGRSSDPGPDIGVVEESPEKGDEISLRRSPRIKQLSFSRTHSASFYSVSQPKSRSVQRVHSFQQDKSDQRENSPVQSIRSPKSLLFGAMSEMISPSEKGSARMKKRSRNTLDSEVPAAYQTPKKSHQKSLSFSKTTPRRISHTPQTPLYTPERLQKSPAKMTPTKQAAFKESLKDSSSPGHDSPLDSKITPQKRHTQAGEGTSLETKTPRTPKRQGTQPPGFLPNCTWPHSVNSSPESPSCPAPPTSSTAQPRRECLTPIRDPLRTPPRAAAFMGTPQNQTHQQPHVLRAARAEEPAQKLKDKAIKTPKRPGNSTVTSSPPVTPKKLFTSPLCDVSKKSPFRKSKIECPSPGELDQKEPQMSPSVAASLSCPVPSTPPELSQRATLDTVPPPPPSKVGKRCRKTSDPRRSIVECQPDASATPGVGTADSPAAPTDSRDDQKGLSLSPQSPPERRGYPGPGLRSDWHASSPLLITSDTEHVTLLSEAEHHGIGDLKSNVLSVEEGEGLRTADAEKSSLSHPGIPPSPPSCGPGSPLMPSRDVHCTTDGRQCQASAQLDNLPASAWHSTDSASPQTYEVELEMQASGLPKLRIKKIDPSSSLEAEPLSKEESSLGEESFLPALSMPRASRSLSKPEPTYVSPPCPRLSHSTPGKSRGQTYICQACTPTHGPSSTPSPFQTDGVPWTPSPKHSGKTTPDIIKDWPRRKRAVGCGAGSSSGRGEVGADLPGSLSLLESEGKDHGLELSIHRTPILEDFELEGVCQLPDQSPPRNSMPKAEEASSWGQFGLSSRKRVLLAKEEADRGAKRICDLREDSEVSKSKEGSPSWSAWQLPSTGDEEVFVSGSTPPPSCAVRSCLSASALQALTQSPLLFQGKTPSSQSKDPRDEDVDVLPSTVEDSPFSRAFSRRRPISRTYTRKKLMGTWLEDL

B1: MTBP-ΔS7M-C (HeLa Flip-In T-Rex stable line) (domain or fragment, UniProt Q96DY7 1-823)
chain: MDRYLLLVIWGEGKFPSAASREAEHGPEVSSGEGTENQPDFTAANVYHLLKRSISASINPEDSTFPACSVGGIPGSKKWFFAVQAIYGFYQFCSSDWQEIHFDTEKDKIEDVLQTNIEECLGAVECFEEEDSNSRESLSLADLYEEAAENLHQLSDKLPAPGRAMVDIILLLSDKDPPKLKDYLPTVGALKHLREWYSAKITIAGNHCEINCQKIAEYLSANVVSLEDLRNVIDSKELWRGKIQIWERKFGFEISFPEFCLKGVTLKNFSTSNLNTDFLAKKIIPSKDKNILPKVFHYYGPALEFVQMIKLSDLPSCYMSDIEFELGLTNSTKQNSVLLLEQISSLCSKVGALFVLPCTISNILIPPPNQLSSRKWKEYIAKKPKTISVPDVEVKGECSSYYLLLQGNGNRRCKATLIHSANQINGSFALNLIHGKMKTKTEEAKLSFPFDLLSLPHFSGEQIVQREKQLANVQVLALEECLKRRKLAKQPETVSVAELKSLLVLTRKHFLDYFDAVIPKMILRKMDKIKTFNILNDFSPVEPNSSSLMETNPLEWPERHVLQNLETFEKTKQKMRTGSLPHSSEQLLGHKEGPRDSITLLDAKELLKYFTSDGLPIGDLQPLPIQKGEKTFVLTPELSPGKLQVLPFEKASVCHYHGIEYCLDDRKALERDGGFSELQSRLIRYETQTTCTRESFPVPTVLSPLPSPVVSSDPGSVPDGEVLQNELRTEVSRLKRRSKDLNCLYPRKRLVKSESSESLLSQTTGNSNHYHHHVTSRKPQTERSLPVTCPLVPIPSCETPKLATKTSSGQKSMHESKTSRQIK
binding [1]: binds

B2: MTBP-WT-3×Flag (HeLa Flip-In T-Rex stable line) (protein, UniProt Q96DY7 1-904)
chain: MDRYLLLVIWGEGKFPSAASREAEHGPEVSSGEGTENQPDFTAANVYHLLKRSISASINPEDSTFPACSVGGIPGSKKWFFAVQAIYGFYQFCSSDWQEIHFDTEKDKIEDVLQTNIEECLGAVECFEEEDSNSRESLSLADLYEEAAENLHQLSDKLPAPGRAMVDIILLLSDKDPPKLKDYLPTVGALKHLREWYSAKITIAGNHCEINCQKIAEYLSANVVSLEDLRNVIDSKELWRGKIQIWERKFGFEISFPEFCLKGVTLKNFSTSNLNTDFLAKKIIPSKDKNILPKVFHYYGPALEFVQMIKLSDLPSCYMSDIEFELGLTNSTKQNSVLLLEQISSLCSKVGALFVLPCTISNILIPPPNQLSSRKWKEYIAKKPKTISVPDVEVKGECSSYYLLLQGNGNRRCKATLIHSANQINGSFALNLIHGKMKTKTEEAKLSFPFDLLSLPHFSGEQIVQREKQLANVQVLALEECLKRRKLAKQPETVSVAELKSLLVLTRKHFLDYFDAVIPKMILRKMDKIKTFNILNDFSPVEPNSSSLMETNPLEWPERHVLQNLETFEKTKQKMRTGSLPHSSEQLLGHKEGPRDSITLLDAKELLKYFTSDGLPIGDLQPLPIQKGEKTFVLTPELSPGKLQVLPFEKASVCHYHGIEYCLDDRKALERDGGFSELQSRLIRYETQTTCTRESFPVPTVLSPLPSPVVSSDPGSVPDGEVLQNELRTEVSRLKRRSKDLNCLYPRKRLVKSESSESLLSQTTGNSNHYHHHVTSRKPQTERSLPVTCPLVPIPSCETPKLATKTSSGQKSMHESKTSRQIKESRSQKHTRILKEVVTETLKKHSITETHECFTACSQRLFEISKFYLKDLKTSRGLFEEMKKTANNNAVQVIDWVLEKTSKK
binding [1]: binds

B3: MTBP (Mdm2 binding protein), endogenous (protein, UniProt Q96DY7 1-904)
chain: B2 chain
binding [2]: binds

Source: paper PMC6377148
